Measurements reported in ChEMBL document CHEMBL4888484, “Replenishing the malaria drug discovery pipeline: Screening and hit evaluation of the MMV Hit Generation Library 1 (HGL1) against asexual blood stage Plasmodium falciparum ,using a nano luciferase reporter read-out” (2022).
Screen size: about 150,000 compounds; about 540 (0.36%) showed an effect of 50% or more. The list shows a part of the results.

These compounds were tested on Plasmodium falciparum (assay: Primary screen in NF54 nanoGlo assay, in single point, at 2uM, 72h; a lower Z score goes with more inhibition). Conditions: timepoint 72 hour.
Assay type: functional, Erythrocyte
`O=C(Cc1nc2ccccc2[nH]1)N1C[C@H]2CC[C@@H](C1)N(CC1CC1)C2=O` was tested, and the “% Inhibition” value was -3% and the Z score was 0.41.
For `CC1(C)C(NCCN2CCN(C(=O)C3CCCC3)CC2)[C@@H]2CCCC[C@@H]21` (some centres undefined), the “% Inhibition” value was 4% and the Z score was -0.55.
With `Cc1ncoc1C(=O)NCc1cc(Cl)cc2c(C)c(-c3ccccc3)[nH]c12` the “% Inhibition” value was -9% and the Z score was 1.88.
For `CC(C)CNC(=O)c1cc(Cc2ccc(F)cc2)no1`, the “% Inhibition” value was 6% and the Z score was -0.82.
`CC(C)c1nnc(N2C[C@@H]3CN(C(=O)C4CCC4)C[C@]3(C(=O)O)C2)s1` was tested, and the “% Inhibition” value was -12% and the Z score was 1.16.
`C[C@H]1CN(C2CCOCC2)CCN1C(=O)NCCOC1CCCCC1` was tested, and the “% Inhibition” value was -13% and the Z score was 1.71.
For `C[C@H](NC(=O)NCc1nccn1C)C1CCCCC1`, the “% Inhibition” value was -1% and the Z score was 0.08.
With `COc1ccc(F)c(CN2CCC[C@@]3(CCN(C(=O)c4cc(C)oc4C)C3)C2)c1` the “% Inhibition” value was -20% and the Z score was 1.85.
For `OCc1csc(N2CCn3nc(CO)cc3C2)n1`, the “% Inhibition” value was 1% and the Z score was -0.1.
In the case of `CC(C)Cc1nc(C(=O)N2CC[C@](C)(CN)C2)cs1`, the “% Inhibition” value is reported as 4% and the Z score is reported as -0.7.
In the case of `CC(C)c1ncc(C(=O)N2CCC[C@H](c3[nH]ncc3-c3ccccc3)C2)c(=O)[nH]1`, the “% Inhibition” value is reported as 3% and the Z score is reported as -0.52.
With `CCC[C@H](C)N1CC2(CCN(C(=O)Cn3nccc3C)CC2)OC1=O` the “% Inhibition” value was -16% and the Z score was 2.94.
With `C[C@H](NCc1cn(C)cn1)c1ccc(OCC2CC2)c(F)c1` the “% Inhibition” value was -6% and the Z score was 0.72.
With `Cc1ccoc1C(=O)Nc1cc(C(C)C)n[nH]1` the “% Inhibition” value was -13% and the Z score was 2.53.
With `O=C(c1cccs1)N1CCC(CCOc2ccccc2F)CC1` the “% Inhibition” value was -6% and the Z score was 1.16.
`O=C(Nc1nc2c(s1)CN(S(=O)(=O)c1cccnc1)CC2)c1ccco1` was tested, and the “% Inhibition” value was -22% and the Z score was 3.28.
`NC(=NCc1ccc2c(c1)CCC2)N1CCN(c2nccs2)CC1` was tested, and the “% Inhibition” value was 0% and the Z score was -0.01.
`CCOC(=O)c1csc(N(C)C(=O)[C@@H]2CCCc3nn(C)cc32)n1` was tested, and the “% Inhibition” value was -10% and the Z score was 1.52.
For `O=c1[nH]c2ccccc2n1-c1nc2ccccc2[nH]1`, the “% Inhibition” value was 5% and the Z score was -0.93.
`Nc1c(S(=O)(=O)c2ccc(Cl)cc2)c2nc3ccccc3nc2n1Cc1ccc(Cl)cc1` was tested, and the “% Inhibition” value was -9% and the Z score was 0.81.
For `CN(C(=O)c1cc2c(cc1Br)NC(=O)CO2)[C@H](c1ccccc1)c1ncc[nH]1`, the “% Inhibition” value was -2% and the Z score was 0.26.
In the case of `CC(=O)c1ccc(NC(=O)Cn2c(-n3nc(C)cc3C)nc3c(c2=O)CCC3)cc1`, the “% Inhibition” value is reported as 23% and the Z score is reported as -3.07.
In the case of `Cc1ccccc1Oc1ccc(S(=O)(=O)N[C@H]2CCN(c3nccs3)C2)cc1`, the “% Inhibition” value is reported as -5% and the Z score is reported as 0.94.
In the case of `COc1ccc(S(=O)(=O)Oc2ccccc2CN(C(=O)C2CCC2)C(C)C)cc1`, the “% Inhibition” value is reported as -2% and the Z score is reported as 0.25.
With `CC(C)c1cc(NCc2cc(C(F)F)on2)n2ncnc2n1` the “% Inhibition” value was 1% and the Z score was -0.25.
For `CC1CCC(O)(CNc2ncnc3[nH]ncc23)CC1` (centres undefined), the “% Inhibition” value was -10% and the Z score was 1.6.
For `CCCN1CCC(NCc2ccc(-c3cccc(Cl)c3Cl)o2)CC1`, the “% Inhibition” value was 55% and the Z score was -11.87.
`O=C(COc1ccc(Cl)cc1)N1CC(=O)N2CCc3ccccc3[C@@H]2C1` was tested, and the “% Inhibition” value was -8% and the Z score was 1.08.
With `O=C(CN1C(=O)c2ccccc2Oc2ncccc21)Nc1ccc(Oc2ccc3c(c2)OCO3)nc1` the “% Inhibition” value was -1% and the Z score was 0.11.
For `Brc1cnn(CCO[C@@H]2CCCCO2)c1`, the “% Inhibition” value was -8% and the Z score was 0.83.
In the case of `CCC(CC)c1nnc(NC(=O)CCc2nc3ccccc3c(=O)[nH]2)s1`, the “% Inhibition” value is reported as 2% and the Z score is reported as -0.38.
`COCCN1C[C@]2(CCCN(C(=O)c3cccc(C)c3O)C2)CCC1=O` was tested, and the “% Inhibition” value was -5% and the Z score was 0.97.
For `CCCn1nnnc1NC(=O)COc1ccc(C)cc1C`, the “% Inhibition” value was 0% and the Z score was 0.03.
For `Cc1cccc(-n2c(=O)c3sccc3n(CC(=O)NCc3ccc(F)cc3F)c2=O)c1C`, the “% Inhibition” value was 37% and the Z score was -5.3.
In the case of `O=C(COc1ccccc1)Nc1nnc(CCCc2ccccc2)s1`, the “% Inhibition” value is reported as 6% and the Z score is reported as -1.05.
`COCc1nc(C)c(CNC(=O)C[C@H](C)n2cccn2)s1` was tested, and the “% Inhibition” value was -18% and the Z score was 2.36.
For `CCn1cc(Cl)c(C(=O)N2CCCC[C@H]2c2nncn2C)n1`, the “% Inhibition” value was -6% and the Z score was 0.69.
With `CCNC(=O)[C@H]1Cc2ccccc2CN1Cc1ncccn1` the “% Inhibition” value was -4% and the Z score was 0.46.
With `CC(NC(=O)CN1CCCC(c2nnc3ccccn23)C1)C(=O)N1CCCCC1` (centres undefined) the “% Inhibition” value was 9% and the Z score was -1.25.
For `CCc1ccc(CN(C)C(=O)Nc2cccc(CN3CCCC[C@@H]3C)c2)nc1`, the “% Inhibition” value was -6% and the Z score was 0.95.
With `Cc1c(C(=O)N2CCC(C)CC2)c(S(=O)(=O)N2CC(=O)Nc3ccccc32)c(C)n1C` the “% Inhibition” value was -7% and the Z score was 1.23.
For `O=C(c1ccc(-c2ccccc2)cc1)N(Cc1cccc(Cl)c1)Cc1nc2cc(Cl)ccc2o1`, the “% Inhibition” value was -3% and the Z score was 0.28.
